# Assay results as given in PMC4336329 (PLoS ONE, 2015).
# Screen size: about 310,000 compounds; about 2,200 (0.71%) showed an effect of 50% or more. The effect is printed as a negative number. The list shows a part of the results.
# Target: human ether-à-go-go-related gene (hERG) potassium channel (human, UniProt Q12809)
# Assay: primary screen, population patch clamp on CHO cells stably expressing hERG
# Sequence of human ether-à-go-go-related gene (hERG) potassium channel (Q12809 whole entry, looked up): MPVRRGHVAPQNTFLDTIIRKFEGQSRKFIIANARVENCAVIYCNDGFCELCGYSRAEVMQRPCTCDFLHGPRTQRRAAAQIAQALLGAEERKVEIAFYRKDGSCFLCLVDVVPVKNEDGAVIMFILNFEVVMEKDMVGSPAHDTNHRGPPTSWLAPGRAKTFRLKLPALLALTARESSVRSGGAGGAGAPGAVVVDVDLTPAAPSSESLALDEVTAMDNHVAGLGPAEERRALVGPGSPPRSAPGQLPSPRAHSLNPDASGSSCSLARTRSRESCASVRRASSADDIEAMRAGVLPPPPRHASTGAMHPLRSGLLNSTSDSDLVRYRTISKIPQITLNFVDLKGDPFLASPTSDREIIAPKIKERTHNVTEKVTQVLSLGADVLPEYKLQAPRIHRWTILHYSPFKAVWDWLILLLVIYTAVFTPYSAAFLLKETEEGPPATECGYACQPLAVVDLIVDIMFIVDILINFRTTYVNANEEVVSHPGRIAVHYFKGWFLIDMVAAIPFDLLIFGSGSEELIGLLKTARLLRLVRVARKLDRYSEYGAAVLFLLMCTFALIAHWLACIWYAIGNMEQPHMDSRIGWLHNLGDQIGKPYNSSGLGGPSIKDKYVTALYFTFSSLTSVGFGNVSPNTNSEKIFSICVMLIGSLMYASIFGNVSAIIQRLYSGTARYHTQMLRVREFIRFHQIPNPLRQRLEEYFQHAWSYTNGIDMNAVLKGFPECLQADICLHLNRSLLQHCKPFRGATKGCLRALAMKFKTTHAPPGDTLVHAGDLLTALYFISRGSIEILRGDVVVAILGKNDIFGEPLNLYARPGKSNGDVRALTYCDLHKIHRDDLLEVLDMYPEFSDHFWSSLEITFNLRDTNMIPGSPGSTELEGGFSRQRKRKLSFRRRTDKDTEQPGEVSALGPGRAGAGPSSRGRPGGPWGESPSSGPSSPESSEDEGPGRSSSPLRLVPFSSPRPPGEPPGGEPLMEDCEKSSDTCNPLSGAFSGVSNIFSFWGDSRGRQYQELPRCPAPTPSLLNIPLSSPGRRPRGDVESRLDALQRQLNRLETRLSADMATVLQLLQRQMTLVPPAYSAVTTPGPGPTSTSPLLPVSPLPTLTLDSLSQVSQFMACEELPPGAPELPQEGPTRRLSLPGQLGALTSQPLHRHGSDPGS
row,Structure (SMILES),"hERG current change (%, negative = inhibition) at 1uM [%]"
1,CCCCN(C(=O)c1ccc2ccccc2c1)c1c(N)n(CCCC)c(=O)[nH]c1=O,2.9
2,COC(=O)Cn1cc(C(=O)C(C)(C)C)c2ccccc21,9.17
3,O=C(CSc1nnc(CNC(=O)c2ccc(F)cc2)o1)NCc1ccc(F)cc1,7.03
4,CCc1nc2ccc(C(=O)NCc3ccccc3)cc2nc1CC,7.34
5,CC/C(=N/Nc1ccccc1)c1cnnc(SC)n1,5.25
6,C/C(=N/NC(=O)c1cccs1)c1ccco1,14.6
7,CCOC(=O)c1c(NC(=O)CCCC(=O)O)sc2c1CCC2,4.7
8,O=C1CC(C(=O)NCc2ccccc2)C2(CCCC2)O1 (centres unmarked),5.35
9,CNC(C(=O)c1ccccc1)C(OC)c1ccc(C)cc1.[O-][Cl+3]([O-])([O-])O (centres unmarked),10.9
10,Cc1ccc(NC(=O)C[n+]2ccn(C3=C([O-])c4ccccc4C3=O)c2)cc1,6.99
11,COc1ccc(S(=O)(=O)NNC(=O)c2ccccc2-n2cccc2)cc1,15.1
12,CCOC(=O)c1c(S(=O)(=O)NCC(=O)Nc2ccc(F)cc2F)c(C)n(C)c1C,11.7
13,Cc1cccc(OCCCC(=O)Nc2ccccc2C(F)(F)F)c1,6.37
14,CCOc1cc(NC(=S)NCc2ccccc2)c(OCC)cc1NC(=O)C(C)C,11.1
15,O=C(O)c1ccc(/C=N/Nc2ccc(Cl)nn2)cc1,15.5
16,O=C(Nc1ccc(C(=O)NCc2ccccc2)cc1)C1=CSCCO1,16.4
17,CCN1CCC2(CC1)C(C#N)=C(N)Oc1c2sc2nc(C)cc(C)c12,-5.82
18,COc1cccc(OCCNC(=O)CSc2ccc(C(F)(F)F)cc2[N+](=O)[O-])c1,9.88
19,FC(F)Oc1ccc(NC(=S)Nn2cnnc2)cc1,8.77
20,COC(=O)c1cc(C(=O)OCC(=O)NCc2cccs2)cc([N+](=O)[O-])c1,-7.81
21,C=CCN(CC=C)C(=O)c1cc2ccccc2c(=O)o1,5
22,Cn1nc(C(F)(F)F)c(-c2cccc(C(F)(F)F)c2)c1NC(=O)Nc1ccc(F)cc1,18
23,O=C(NN=C1CCCC1)c1ccc(Br)cc1,12.4

row,Structure (SMILES),"hERG current change (%, negative = inhibition) at 1uM [%]"
1,COc1ccc2[nH]c(C(=O)Nc3ncc(C)cc3Br)cc2c1,11.1
2,CC(=O)Nc1ccc(/C=N/OCC(=O)Nc2ccc(C)cc2)cc1,6.31
3,COc1ccc(CN2CCCCCC2)cc1,1.26
4,CCCC(=O)N(CCN1CCOCC1)c1nc2c(OCC)cccc2s1.Cl,10.4
5,Cc1nn2c(-c3ccc(F)cc3)ccnc2c1Br,8.89
6,Cc1ccc(-n2nc(C)c3c2OC(N)=C(C#N)C3c2ccco2)cc1 (centres unmarked),15.9
7,CSc1nnc(-c2cccc(NC(=S)NN)c2)o1,13.4
8,CC(=O)Nc1ccc(C(=O)NNC(=O)c2cc([N+](=O)[O-])cc([N+](=O)[O-])c2)cc1,12.6
9,COc1cccc(/C=C(/C(=O)OCC(=O)NC2CCCCCCC2)c2ccccc2)c1,8.5
10,COc1ccc(CCN(C)CC(O)c2ccccc2)cc1OC.O=C(O)C(=O)O (centres unmarked),1.76
11,Cc1cc(NC(=O)Nc2ccc(Cl)cc2)n(C(C)(C)C)n1,11.2
12,CCOc1ccc(S(=O)(=O)N2CCCC(C(=O)Nc3cc(C)cc(C)c3)C2)cc1 (centres unmarked),14.7
13,O=C(C1CCN(c2nnc(-n3cccc3)s2)CC1)N1CCN(Cc2ccc3c(c2)OCO3)CC1,-48.4
14,O=C(N/N=C/c1cc(Cl)cc([N+](=O)[O-])c1O)C(O)(c1ccccc1)c1ccccc1,-62.4
15,Cc1cccc(C(C)C)c1-n1nnnc1-c1ccccc1,2.15
16,COc1ccccc1N1CCN(C2CCCC(C)C2)CC1 (centres unmarked),15.8
17,CCOP(=O)(OCC)C(NCc1ccccc1)c1ccc(Br)cc1 (centres unmarked),7.25
18,CCOC(=O)[C@H]1[C@H]2COc3ccc(Br)cc3[C@@H]2N2C(=O)c3cc(OC)c(OC)cc3NC(=O)[C@@]12C,7.08
19,CCOC(=O)Cn1c(=O)oc2cc(S(=O)(=O)N3CCC(N4CCCCC4)CC3)ccc21,12.2
20,CC(=O)N1CCN(Cc2nc3cc([N+](=O)[O-])ccc3n2C)CC1,14
21,C=CCNc1nc(C(=O)OCC(=O)c2ccc(C)c([N+](=O)[O-])c2)cs1,8.54
22,Cc1nnc(-c2cnn(C)c2N)n1CCCN(C)C,11.5
23,CC1=NN(c2nc(-c3ccc(C)cc3)cs2)C(=O)C1N=Nc1ccc2ccccc2c1 (centres unmarked),-12.8

row,Structure (SMILES),"hERG current change (%, negative = inhibition) at 1uM [%]"
1,CC(C)(O)C#Cc1ccc(CN2CCN(C3CCCC3)C(CCO)C2)cc1 (centres unmarked),14.6
2,Cl.O=C(O)CCn1c(CO)nc2ccccc21,13
3,CC(=O)Nc1ccc(NC(=O)CCOc2cc(C)ccc2C)cc1,23
4,CCn1ccnc1CN1CCc2c([nH]c3ccccc23)C1C(C)(C)C (centres unmarked),0.362
5,O=C(c1cccs1)c1c[nH]cc1-c1ccccc1,14.5
6,COC(=O)[C@H]1[C@H]2C[C@H]3c4[nH]c5ccccc5c4CCN3C[C@@H]2CC[C@@H]1O,6.91
7,Cc1ccc2nc(NC(=O)c3cc(-c4ccco4)nc4ccccc34)sc2c1,13.4
8,Nc1nc(-c2cccs2)cs1,6.26
9,O=C1CN(C(=O)COC(=O)COc2ccc3c(c2)CCC3)c2ccccc2N1,10
10,CN(C)c1cccc(C(=O)NNC(=O)CSc2ccccc2)c1,26.9
11,O=C(NCCCO)c1ccc(CSc2nc3ccccc3c(=O)[nH]2)cc1,-11.3
12,CSCCC(NC(=O)c1ccc([N+](=O)[O-])cc1Cl)C(=O)OCC(=O)N1CCN(C(C)=O)CC1 (centres unmarked),4.68
13,O=C(N/C(=C\c1ccco1)C(=O)N1CCCC1CO)c1ccccc1 (centres unmarked),10.6
14,CC(C)(C)OC(=O)NCCCCCc1nnc(SCc2ccccc2F)o1,-2.15
15,O=C(Nc1cccc(F)c1)c1cc(S(=O)(=O)NCCC2=CCCCC2)ccc1F,13
16,COc1ccccc1N1C(=O)c2ccc(C(=O)Nc3ccccc3O)cc2C1=O,13.5
17,CCN(CC(=O)N1CCc2ccccc2C1)S(=O)(=O)c1ccc2ccccc2c1,-2.77
18,COc1ccc(/C=N/NC(=O)c2cccnc2)cc1CN1CCc2cc(OC)c(OC)cc2C1C (centres unmarked),1.82
19,O=C(Cc1ccccc1)c1ccc2c(c1)OCCO2,3.23
20,COc1ccccc1S(=O)(=O)Cc1ccc(C(=O)NCCN(C)C)o1,10.6
21,CN1C2CCC1CC(OC(=O)c1ccc(Cl)cc1)(C(=O)O)C2.Cl (centres unmarked),2.55
22,COc1ccc(/C=N/NC(=O)c2cccc(C(=O)N/N=C/c3ccc(OC)cc3)n2)cc1,23.9
23,O=C(Nc1ccc(F)c(F)c1)c1ccc(-n2cncn2)c([N+](=O)[O-])c1,9.62

row,Structure (SMILES),"hERG current change (%, negative = inhibition) at 1uM [%]"
1,Nc1ccc(C(=O)O)cc1[N+](=O)[O-],17.2
2,c1ccc2[nH]c(NCCCN3CCOCC3)nc2c1,14.6
3,CNC(=O)C1CCN(C(=O)c2ccc(-c3ccccc3)cc2)CC1,8.93
4,COC(=O)c1ccccc1S(=O)c1snnc1C (centres unmarked),14.5
5,NNC(=O)C12CC3CC(C1)CC(n1ncnn1)(C3)C2,7.93
6,O=C(O)CCCC(=O)Nc1ccc(S(=O)(=O)Nc2nccs2)cc1,9.23
7,Cc1[nH]c2ccccc2c1C(=O)COC(=O)c1cccc(S(=O)(=O)N2CCCCC2)c1,14.1
8,Cc1ccc(NS(=O)(=O)c2c(C)[nH]c(=O)[nH]c2=O)cc1F,-8.76
9,COc1cnc(-c2ccccn2)nc1Oc1c(C)cccc1C,14.2
10,O=[N+]([O-])c1cc2c(cc1/C=N/Nc1nc(N3CCCC3)nc(N3CCCC3)n1)OCO2,-5.94
11,Cc1ccc(-c2nn3c(=O)c(C)nnc3s2)cc1,12.7
12,COc1ccc(/C(N)=N/OC(=O)CSc2ccc(C)cc2)cc1,13.1
13,COCCNC(=O)C(c1ccc(C)o1)N(CCOC)C(=O)Cn1nnc2ccccc21 (centres unmarked),11.7
14,CCCCCC(=O)NNC1CC(=O)N(c2ccccc2)C1=O (centres unmarked),11.7
15,CCOc1ccc(C(=O)Nc2nc(C)c(C(=O)OC)s2)cc1,13.9
16,Cc1cccc(-n2c(-c3ccco3)nc3ccccc3c2=O)n1,18.6
17,COc1cccc(NC(=O)CSc2nn3c(=O)c(C)nnc3s2)c1,11
18,Cc1c(Cl)cccc1NC(=S)N1CCN(C(=O)C2CCCO2)CC1 (centres unmarked),12
19,COc1ccc(CNC(=O)[C@H](C)N2C(=O)N3CCc4c([nH]c5ccccc45)[C@@]3(C)C2=O)cc1OC,-4.09
20,Cc1sc2ncnc(SCC(=O)NC(=O)c3cccn3C)c2c1C,10.4
